Measurements as given in the supplement of paper PMC4604168 (melanoma cell lines).
This is one part of the list. Most values come without repeats; read them as rough.

Experiments:
Assay in all cases: cell count relative to DMSO control; melanoma cells; higher = more viable cells
Conditions in all cases: library dose: low library concentration; 72 h
[1] = test system: WM115
[2] = test system: WM1716
[3] = test system: WM1745
[4] = test system: WM3526
[5] = test system: WM3619
[6] = test system: WM451Lu
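Further: cell number obtained by counting DAPI-stained nuclei in high-throughput microscope images with image analysis software, screen run in 1,536-well plates.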

| Compound | cell count [1] | cell count [2] | cell count [3] | cell count [4] | cell count [5] | cell count [6] |
| --- | --- | --- | --- | --- | --- | --- |
| O=C(CCCCCCC(=O)Nc1ccccc1)NO [vorinostat] + COc1cc(Nc2ncc(F)c(Nc3ccc4c(n3)NC(=O)C(C)(C)O4)n2)cc(OC)c1OC [Tamatinib] (first compound 0.08 µM, partner dose 0.4 µM) | 84.3% | 102% | 105% | 100% | 79.7% | 73.3% |
| COCC[n+]1c2c(n(Cc3cnccn3)c1C)C(=O)c1ccccc1C2=O + Cc1ccc(NC(=O)c2cccc(N(C)C)c2)cc1NC(=O)c1ccc(O)cc1 [ZM336372] (first compound 0.0004 µM, partner dose 2 µM) | 103% | 95.1% | 90.7% | 84.2% | 113% | 46.5% |
| Cn1c(Nc2ccc(C(F)(F)F)cc2)nc2cc(Oc3ccnc(-c4ncc(C(F)(F)F)[nH]4)c3)ccc21 + CC(C)(C)c1cnc(CSc2cnc(NC(=O)C3CCNCC3)s2)o1 [SNS-032] (first compound 0.08 µM, partner dose 0.01 µM) | 37.5% | 70.8% | 60.4% | 44.9% | 63.8% | 84.5% |
| OCc1c[nH]c2ccccc12 [Indole-3-carbinol] + CC(C)(C)c1cnc(CSc2cnc(NC(=O)C3CCNCC3)s2)o1 [SNS-032] (first compound 0.8 µM, partner dose 0.01 µM) | 96.8% | 102% | 106% | 110% | 115% | 81.5% |
| Nc1cccc2c1CN(C1CCC(=O)NC1=O)C2=O (configuration not stated) [lenalidomide] + O=C(Nc1ccccc1)c1cc([N+](=O)[O-])ccc1Cl [GW9662] (first compound 1 µM, partner dose 2 µM) | 91.2% | 92.2% | 97.9% | 101% | 73.2% | 114% |
| Nc1cccc2c1CN(C1CCC(=O)NC1=O)C2=O (configuration not stated) [lenalidomide] + OCCn1cc(-c2cnc3nnn(Cc4ccc5ncccc5c4)c3n2)cn1 [PF04217903] (first compound 1 µM, partner dose 1 µM) | 88.6% | 95.6% | 75.2% | 119% | 103% | 86% |
| Cn1c(Nc2ccc(C(F)(F)F)cc2)nc2cc(Oc3ccnc(-c4ncc(C(F)(F)F)[nH]4)c3)ccc21 + COc1ccc(-c2ccc3c(N4CCOCC4)nc(N4C[C@@H](C)O[C@@H](C)C4)nc3n2)cc1CO [KU0063794] (first compound 0.08 µM, partner dose 0.02 µM) | 43.8% | 56.1% | 57.8% | 43.8% | 57.2% | 81.7% |
| Cn1c(Nc2ccc(C(F)(F)F)cc2)nc2cc(Oc3ccnc(-c4ncc(C(F)(F)F)[nH]4)c3)ccc21 + CC(C)CCN1c2nc(Nc3cc(F)c(O)c(F)c3)ncc2N(C)C(=O)C1C [BID1870] (first compound 0.08 µM, partner dose 0.2 µM) | 52.4% | 70% | 61.4% | 49.3% | 28.6% | 91.1% |
| C#Cc1cccc(Nc2ncnc3cc(OCCOC)c(OCCOC)cc23)c1 [erlotinib] + CCCCCCCCCCCC1=C(O)C(=O)C=C(O)C1=O [Embelin] (first compound 0.8 µM, partner dose 1.2 µM) | 88.7% | 104% | 77.8% | 99.8% | 103% | 105% |
| OCc1c[nH]c2ccccc12 [Indole-3-carbinol] + O=C(Nc1cccc(Cl)c1)Nc1ncc(CCNc2ncnc3ccsc23)s1 [SNS314] (first compound 0.8 µM, partner dose 0.0008 µM) | 97.5% | 96.8% | 127% | 115% | 141% | 99.7% |
| C#Cc1cccc(Nc2ncnc3cc(OCCOC)c(OCCOC)cc23)c1 [erlotinib] + COc1cc(Nc2ncc(F)c(Nc3ccc4c(n3)NC(=O)C(C)(C)O4)n2)cc(OC)c1OC [Tamatinib] (first compound 0.8 µM, partner dose 0.4 µM) | 89.6% | 103% | 63.5% | 87.7% | 91.9% | 92.4% |
| Cn1c(Nc2ccc(C(F)(F)F)cc2)nc2cc(Oc3ccnc(-c4ncc(C(F)(F)F)[nH]4)c3)ccc21 + COc1cc(N2CCC(N3CCN(C)CC3)CC2)ccc1Nc1ncc(Cl)c(Nc2ccccc2S(=O)(=O)C(C)C)n1 [NVP-TAE684] (first compound 0.08 µM, partner dose 0.08 µM) | 58.9% | 91% | 64% | 44.1% | 72% | 67.3% |
